Source: PubChem BioAssay AID1347120 (National Center for Advancing Translational Sciences (NCATS), 2019)
Among all 390,000 compounds or so, about 930 (0.24%) were called active. The shares of active, inactive and inconclusive entries below differ from those in the screen. Calls follow the shape of the dose curve; as a rule, active = well fitted activation curve with a large enough effect; inconclusive = small, poorly fitted or top-dose-only effect; inactive = no such curve, though single readings can be large or run the other way. Where the call is inconclusive, the potency comes from a doubtful curve fit.

Assay: qHTS for Suppressors of FUS Proteinopathy: Primary screen using FUS-linked yeast assay; also: nearly all actives have a fitted effect of over 55% in size;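 as to growth rescue (activation): plate controls were DMSO vehicle for no effect and reference control for full effect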
Settings: S. cerevisiae FUS-expressing, OD600, 24 h; Potency: growth rescue; growth rescue (activation): at 76.6 µM (top of the series)
How it was run: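 Toxicity suppression screen in FUS-yeast. Cells induced with 2% galactose, starting OD 0.005, treated 24hr at 30C with compounds at multiple final concentrations; growth by OD600.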
Potency is read from the fitted curve at half-maximal effect; tags tell the direction and shape of the fitted curve.

| Compound | Potency | growth rescue (activation) |
| --- | --- | --- |
| CCOC(=O)c1ccc(-n2c(CCC(=O)O)ccc2-c2ccc(Br)cc2)cc1 | inconclusive: 50.1 µM [activator, single point] | – |
| CCNC(=O)CSC1=N/C(=C\c2ccc(O)c(OCC)c2)C(=O)N1c1ccc(OC(F)F)cc1 | – | inactive: 36.1% |
| CC(C)(CNC(=O)c1ccc([N+](=O)[O-])c(Cl)c1)CNC(=O)c1ccc([N+](=O)[O-])c(Cl)c1 | inconclusive: 10 µM [activator, partial curve] | – |
| Cc1cc(Cl)ccc1OCC(=O)Nc1c(Cl)ccc2nsnc12 | – | inactive: -11.8% |
| CCOc1ccc(C=NC23CN4CN(CN(C4)C2)C3)cc1 | inconclusive: 31.6 µM [activator, single point] | – |
| CCOc1ccc(/C(O)=C2/C(=O)C(=O)N(c3ncccn3)C2c2ccc(Cl)cc2)cc1 (stereo not drawn) | inconclusive: 22.4 µM [activator, partial curve, poor fit] | – |
| CCN1CCN(C(=O)c2cc(=O)c3cc(C)ccc3o2)CC1 | – | inactive: 32.6% |
| CCOC(=O)[C@]12CCCC=C1N(Cc1cccc3ccccc13)C(=O)[C@H](CC(=O)NCc1ccccc1)C2 | inconclusive: 11.2 µM [activator, partial curve] | – |
| COc1cccc(CNS(=O)(=O)c2ccc3c(c2)CCN3C(=O)C2CCC2)c1 | – | inactive: 4.42% |
| O=S(=O)(CC1NCc2ccccc21)NC1CCCC1 (stereo not drawn) | – | inactive: 2.52% |
| Cc1ccc(S(=O)(=O)N(C)C)cc1NC(=O)C1Cc2ccccc2CN1C(=O)c1ccco1 (stereo not drawn) | inconclusive: 12.6 µM [activator, partial curve, poor fit] | – |
| O=C(c1ccco1)N1CCN(C(c2ccccc2Cl)c2nnnn2Cc2ccco2)CC1 (stereo not drawn) | inconclusive: 50.1 µM [activator, single point] | – |
| CCCCC(=O)Nc1nc(C)c(-c2csc(Nc3ccc(Cl)cc3)n2)s1 | inconclusive: 31.6 µM [activator, partial curve, poor fit] | – |
| CCn1cc(Br)c(C(=O)Nc2ccc(C(=O)OC(C)C)cc2)n1 | inconclusive: 14.1 µM [activator, partial curve] | – |
| COc1ccc(CC(=O)Nc2sc3c(c2C(=O)Nc2cccc(Cl)c2)CCCCC3)cc1 | inconclusive: 17.8 µM [activator, partial curve, poor fit] | – |
| COc1ccc2nc3oc(C(=O)N4CCN(c5cc(C)ccc5C)CC4)cc3cc2c1 | – | inactive: -19.3% |
| CCn1c(Cc2cccs2)nnc1SCC(=O)Nc1cccc2ccccc12 | – | inactive: 14.7% |
| CCOc1ccc(NC(=O)COC(=O)Cc2ccc(S(=O)(=O)N3CCOCC3)s2)cc1 | inconclusive: 28.2 µM [activator, single point] | – |
